Reference: the supplement of paper PMC12217912
Some of the results follow. The full chains were built here from the parent and the listed change. Inactive controls read about 0.05.

B1: TEV protease; numbered along this chain (parent)
chain: MGESLFKGPRDYNPISSSICHLTNESDGHTTSLYGIGFGPFIITNKHLFRRNNGTLVVQSLHGVFKVKDTTTLQQHLVDGRDMIIIRMPKDFPPFPQKLKFREPQREERICLVTTNFQTKSMSSMVSDTSCTFPSGDGIFWKHWIQTKDGQCGSPLVSTRDGFIVGIHSASNFTNTNNYFTSVPKNFMELLTNQEAQQWVSGWRLNADSVLWGGHKVFMVKPEEPFQPVKEATQL

Variants of: B1
Test: raw area under fraction-flipped curve 0-4 h after induction (AUC4h, not background-subtracted), DNA-recorder readout of cleavage of the substrate (dimensionless); higher = more cleavage of the substrate by the protease variant
Settings: temperature: 34 °C; time window: 0-4 h after rhamnose induction
Experimental: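 In vivo DNA recorder in E. coli TOP10(DE3) ΔrhaA at 34 °C. Each TEVp single-site mutant (parent TEVp 0) is paired with a single-site variant of the 7-mer TEVs (canonical ENLYFQ|S). The substrate sits between flexible linkers in a Bxb1-sfGFP-TEVs-SsrA fusion, so cleavage stabilises Bxb1 and speeds flipping of a recombination array, read by NGS. The value is the raw area under the fraction-flipped curve over 0-4 h after rhamnose induction (AUC4h), with ≥20 reads per time point. It is not background-subtracted; inactive controls average about 0.047.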
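Also: Bxb1 expression induced with 0.2% (w/v) L-rhamnose at OD600 near 0.5, cultures sampled hourly, flipped fraction per protease–substrate barcode pair counted by paired-end Illumina sequencing.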

Variant | area with substrate ENLYFQG | area with substrate ENLYFQH | area with substrate ENLYFQI | area with substrate ENLYFQK | area with substrate ENLYFQL | area with substrate ENLYFQN | area with substrate ENLYFQP | area with substrate ENLYFQQ | area with substrate ENLYFQS | area with substrate ENLYFQT
A170W | 0.0657 | 0.0505 | 0.0587 | 0.0628 | 0.0595 | 0.0512 | 0.0548 | 0.0567 | 0.0554 | 0.0241
K66W | 0.0772 | 0.0777 | 0.052 | 0.0548 | 0.0639 | 0.0706 | 0.0632 | 0.0612 | 0.0965 | 0.0649
N172V | 0.0593 | – | – | 0.061 | – | 0.0619 | – | – | 0.0552 | –
V58M | 0.0921 | – | 0.0532 | – | 0.0399 | 0.0606 | – | – | 0.102 | 0.0528
V58D | 0.0301 | – | – | 0.0412 | – | – | 0.0486 | – | 0.0456 | 0.0423
I139T | 0.139 | – | 0.0819 | – | 0.055 | – | 0.0842 | – | 0.131 | –
M83R | – | – | – | 0.0326 | 0.0481 | – | – | – | 0.0498 | 0.0572
G202W | 0.0733 | – | 0.0523 | 0.0686 | 0.0536 | 0.0574 | 0.0632 | – | 0.0598 | –
N178Q | 0.184 | 0.089 | – | – | – | – | – | 0.0699 | 0.117 | 0.0742
M88L | 0.0906 | 0.0851 | 0.0614 | 0.0752 | – | – | 0.068 | – | 0.101 | –
S209R | – | – | – | – | 0.0582 | – | – | 0.0723 | 0.0859 | –
S209H | 0.11 | – | – | 0.0674 | 0.0534 | – | 0.0585 | 0.062 | 0.113 | 0.0504
S209W | 0.117 | – | – | – | 0.0753 | – | – | – | 0.109 | –
M125Y | 0.0577 | – | – | – | – | 0.0969 | – | 0.0615 | 0.105 | –
F180H | 0.0995 | – | 0.0536 | – | – | – | 0.0561 | – | 0.107 | 0.0577
E195P | 0.0756 | – | – | 0.0822 | – | – | – | – | 0.084 | –
S182H | 0.0789 | – | 0.0601 | 0.0575 | 0.0536 | 0.0696 | 0.0272 | – | 0.0844 | 0.0572
N175A | 0.0935 | 0.0537 | 0.0551 | 0.0746 | 0.0546 | 0.0889 | 0.0588 | – | 0.0801 | –
D137S | 0.0932 | – | – | 0.0477 | 0.0686 | – | 0.0563 | – | 0.0925 | 0.0518
V57Q | – | – | – | 0.049 | – | – | – | – | 0.133 | –

Same assay, conditions: temperature: 34 °C; time window: 0-4 h after rhamnose induction

Variant | area with substrate ENLYFQW | area with substrate ENLYFQY | area with substrate ENLYFQF | area with substrate ENLYFQM | area with substrate ENLYFQR | area with substrate ENLYFQV | area with substrate ENLYFQE
A170W | 0.0654 | 0.0707 | – | – | – | – | –
K66W | 0.0614 | 0.0631 | 0.0556 | 0.0972 | 0.0579 | 0.055 | –
N172V | 0.0518 | – | – | – | 0.0508 | – | –
V58M | 0.0707 | – | – | – | – | – | –
V58D | – | – | – | 0.0353 | 0.0416 | – | –
I139T | – | – | – | – | 0.0618 | – | 0.0576
M83R | 0.0439 | – | 0.0385 | – | – | – | –
G202W | 0.07 | 0.0414 | – | – | – | – | –
M88L | 0.0642 | 0.0798 | – | – | 0.0635 | – | –
S209R | 0.068 | 0.0602 | 0.0649 | 0.0606 | 0.0559 | – | –
S209H | 0.0873 | 0.0807 | – | – | 0.0625 | 0.0649 | –
S209W | 0.0565 | 0.119 | – | – | – | – | –
M125Y | 0.0746 | – | – | 0.0793 | 0.0617 | – | –
F180H | 0.0412 | – | – | – | – | – | –
S182H | – | 0.0573 | – | 0.0519 | 0.0624 | – | –
N175A | 0.0671 | 0.0645 | 0.0576 | 0.0862 | 0.0568 | 0.07 | –
D137S | 0.0613 | 0.073 | – | – | 0.0512 | 0.0611 | –
V57Q | 0.0674 | 0.139 | 0.11 | – | – | – | –
